The antibiotic and cytotoxicity screens of Wong et al. (2023)
Some of the results follow.

Columns and labels:
HSkMC = human skeletal muscle cells; assay: cytotoxicity call (relative viability < 0.9); settings: 10 µM
HepG2 = assay: cytotoxicity call (relative viability < 0.9); settings: 10 µM
S. aureus RN4220 = assay: growth inhibition call (relative growth <= 0.2); settings: 50 µM

Cc1ccc(S(=O)(=O)N(C)C[C@@H]2OCCCC[C@@H](C)Oc3ccc(NC(=O)Nc4ccc(F)cc4)cc3C(=O)N([C@H](C)CO)C[C@@H]2C)cc1
inactive: cytotoxicity call (HSkMC) | cytotoxicity call (HepG2) | growth inhibition call (S. aureus RN4220)

CO[C@H]1CN(C)C(=O)c2cc(NS(=O)(=O)CC(F)(F)F)ccc2OC[C@@H](C)N(C(=O)NC(C)C)C[C@@H]1C
inactive: cytotoxicity call (HSkMC) | cytotoxicity call (HepG2) | growth inhibition call (S. aureus RN4220)

C[C@@H]1CN([C@H](C)CO)C(=O)c2cc(NS(=O)(=O)c3cccs3)ccc2O[C@@H](C)CCCCO[C@@H]1CN(C)Cc1ccccc1
inactive: cytotoxicity call (HSkMC) | cytotoxicity call (HepG2) | growth inhibition call (S. aureus RN4220)

CCS(=O)(=O)Nc1ccc2c(c1)C(=O)N(C)[C@H]1CC[C@H](CC(=O)N[C@H]3CCN(Cc4ccccc4)C3)O[C@@H]1CO2
inactive: cytotoxicity call (HSkMC) | cytotoxicity call (HepG2) | growth inhibition call (S. aureus RN4220)

C[C@H](CO)N1C[C@H](C)[C@H](CN(C)S(=O)(=O)c2ccccc2F)Oc2ncc(C#Cc3ccccc3F)cc2C1=O
inactive: cytotoxicity call (HSkMC) | cytotoxicity call (HepG2) | growth inhibition call (S. aureus RN4220)

CN(C)CC(=O)N[C@H]1CC[C@@H](CC(=O)NCCN2CCCCC2)O[C@@H]1CO
inactive: cytotoxicity call (HSkMC) | cytotoxicity call (HepG2) | growth inhibition call (S. aureus RN4220)

O=C(C[C@@H]1CC[C@H]2[C@@H](COC[C@H](O)CN2S(=O)(=O)c2cccc(Cl)c2)O1)NCCCN1CCOCC1
inactive: cytotoxicity call (HSkMC) | cytotoxicity call (HepG2) | growth inhibition call (S. aureus RN4220)

NCC1CCC(N)C(OC2C(N)CC(N)C(OC3OC(CO)C(O)C(N)C3O)C2O)O1 (configuration not stated)
inactive: cytotoxicity call (HSkMC) | cytotoxicity call (HepG2) | growth inhibition call (S. aureus RN4220)

Cc1ccccc1S(=O)(=O)N1C[C@H](O)COC[C@@H]2O[C@H](CC(=O)N3CCOCC3)CC[C@H]21
inactive: cytotoxicity call (HSkMC) | cytotoxicity call (HepG2) | growth inhibition call (S. aureus RN4220)
